Results as given in patent US6448281B1 (Boehringer Ingelheim (Canada) Ltd., priority 2000, dated 2002).
Where two headings read alike, the source gives them in different places.

Molecular target: hepatitis C virus RNA dependent polymerase (NS5B) (Hepacivirus hominis (Hepatitis C virus), UniProt P26663)
Experiment: Inhibition of NS5B RNA dependent RNA polymerase activity (SPA, UMP-[5,6 3H] incorporation)
[1] = IC50 μM, first compound table (printed title TABLE 10; Table 1)

In the case of `O=C(O)C=Cc1ccc(CN2CCC(NC(=O)c3ccc4c(c3)nc(-c3ccoc3)n4C3CCCCC3)C2)cc1` (stereo not drawn) [Entry 1277], the IC50 [1] is reported as 1 to 5 µM.
Work on `O=C(NC(Cc1ccc(O)cc1)c1cccnc1)c1ccc2c(c1)nc(-c1ccoc1)n2C1CCCCC1` (racemic) [Entry 1260, 1-Cyclohexyl-2-furan-3-yl-1H-benzimidazole-5-carboxylic Acid [2-(4-hydroxy-phenyl)-1-pyridin-3-yl-ethyl]-amide] yielded an IC50 [1] of 1 to 5 µM.
`O=C(O)[C@@H]1Cc2c([nH]c3ccc(O)cc23)CN1C(=O)c1ccc2c(c1)nc(-c1ccoc1)n2C1CCCCC1` [Entry 6005] gave an IC50 (IC50 μM, Table 6) of 5 to 10 µM.
`CC(=O)c1cc(C[C@H](NC(=O)c2ccc3c(c2)nc(-c2ccoc2)n3C2CCCCC2)C(=O)O)ccc1O` [Entry 1147, (S)-3-(3-Acetyl-4-hydroxy-phenyl)-2-{[1-(1-cyclohexyl-2-furan-3-yl-1H-benzimidazol-5-yl)-methanoyl]-amino}-propionic Acid] was tested, and the IC50 [1] was 1 to 5 µM.
Work on `O=C(N[C@@H](Cc1c[nH]c2ccc(O)cc12)C(=O)O)c1ccc2c(c1)nc(-c1ccoc1)n2CC1CC1` [Entry 22015] yielded an IC50 (IC50 μM, Table 22) of under 1 µM.
Work on `O=C(N[C@@H](Cc1ccc(NS(=O)(=O)C(F)(F)F)cc1)C(=O)O)c1ccc2c(c1)nc(-c1ccoc1)n2C1CCCCC1` [Entry 16030, (S)-2-{[1-(1-Cyclohexyl-2-furan-3-yl-1H-benzoimidazol-5-yl)-methanoyl]amino}-3-(4-trifluoromethanesulfonylaminophenyl)-propionic Acid] yielded an IC50 (IC50, Table 16) of under 1 µM.
`[N-]=[N+]=Nc1ccc(C(=O)NCCNC(=O)COc2ccc(-c3nc4cc(C(=O)N[C@@H](Cc5c[nH]c6ccc(OCC(=O)O)cc56)C(=O)O)ccc4n3C3CCCCC3)cc2)cc1` [Entry 12025, (S)-2-{[1-(2-{4-[(2-{[1-(4-Azido-phenyl)-methanoyl]-amino}-ethylcarbamoyl)-methoxy]-phenyl}-1-cyclohexyl-1H-benzimidazol-5-yl)-methanoyl]-amino}-3-(5-carboxymethoxy-1H-indol-3-yl)-propionic Acid] showed an IC50 (IC50, Table 12) of under 1 µM.
In the case of `Cc1cc2c(cc1C(=O)N[C@@H](Cc1c[nH]c3ccc(OCC(=O)O)cc13)C(=O)O)nc(-c1ccoc1)n2C1CCCCC1` [Entry 5009, (S)-3-(5-Carboxymethoxy-1H-indol-3-yl)-2-{[1-(1-cyclohexyl-2-furan-3-yl-6-methyl-1H-benzimidazol-5-yl)-methanoyl]-amino}-propionic Acid], the IC50 (IC50 μM, Table 5) is reported as 1 to 5 µM.
With `COc1ccc(CCNC(=O)c2ccc3c(c2)nc(-c2ccccn2)n3C2CCCCC2)cc1OC` [Entry 2108, 1-Cyclohexyl-2-pyridin-2-yl-1H-benzoimidazole-5-carboxylic Acid [2-(3,4-Dimethoxyphenyl)ethyl]amide] the IC50 was 10 to 25 µM.
`CC(CC(=O)O)NC(=O)c1ccc2c(c1)nc(-c1ccoc1)n2C1CCCCC1` (stereo not drawn) [Entry 1159] showed an IC50 [1] of 10 to 25 µM.
`O=C(O)c1cccc(NC(=O)N2CCC(NC(=O)c3ccc4c(c3)nc(-c3ccoc3)n4C3CCCCC3)C2)c1` (stereo not drawn) [Entry 1202] showed an IC50 [1] of 1 to 5 µM.
In the case of `CC1CCC(C)C1n1c(-c2ccoc2)nc2cc(C(=O)NC(Cc3c[nH]c4ccc(O)cc34)C(=O)O)ccc21` (stereo not drawn) [Entry 22011], the IC50 (IC50 μM, Table 22) is reported as under 1 µM.
`Cc1nc([C@H](Cc2c[nH]c3ccc(O)cc23)NC(=O)c2ccc3c(c2)nc(-c2ccoc2)n3C2CCCCC2)cs1` [Entry 14001, 1-Cyclohexyl-2-furan-3-yl-1H-benzimidazole-5-carboxylic Acid [(S)-2-(5-Hydroxy-1H-indol-3-yl)-1-(2-methyl-thiazol-4-yl)-ethyl]-amide] gave an IC50 (IC50, Table 14) of under 1 µM.
`Cc1c(C(=O)N[C@@H](Cc2c[nH]c3ccc(O)cc23)C(=O)O)ccc2c1nc(-c1ccoc1)n2C1CCCCC1` [Entry 5007, (S)-2-{[1-(1-Cyclohexyl-2-furan-3-yl-4-methyl-1H-benzimidazol-5-yl)-methanoyl]-amino}-3-(5-hydroxy-1H-indol-3-yl)-propionic Acid] gave an IC50 (IC50 μM, Table 5) of under 1 µM.
`O=C(NNC(=O)c1ccc2c(c1)nc(-c1ccoc1)n2C1CCCCC1)OCc1ccccc1` [Entry 1301] was tested, and the IC50 [1] was 5 to 10 µM.
Compound `CC(C(=O)O)c1ccc(NC(=O)c2ccc3c(c2)nc(-c2ccoc2)n3C2CCCCC2)cc1` (stereo not drawn) [Entry 1238] has an IC50 [1] of 10 to 25 µM.
`Cn1cc(C[C@H](NC(=O)c2ccc3c(c2)nc(-c2ccoc2)n3C2CCCCC2)c2csc(N)n2)c2cc(O)ccc21` [Entry 14003, 1-Cyclohexyl-2-furan-3-yl-1H-benzimidazole-5-carboxylic Acid [(S)-1-(2-Amino-thiazol-4-yl)-2-(5-hydroxy-1-methyl-1H-indol-3-yl)-ethyl]-amide] showed an IC50 (IC50, Table 14) of under 1 µM.
Compound `O=C(O)c1ccc2c(c1)nc(-c1ncc[nH]1)n2C1CCCCC1` [Entry 7004] has an IC50 (IC50 μM, Table 7) of 10 to 25 µM.
Compound `COc1ccc(C(NC(=O)c2ccc3c(c2)nc(-c2cccn2C)n3C2CCCCC2)C(=O)O)cc1OC` (stereo not drawn) [Entry 2063] has an IC50 (IC50 μM, Table 2) of 1 to 5 µM.
Compound `Cn1cc(C[C@H](NC(=O)c2ccc3c(c2)nc(-c2ccoc2)n3C2CCCCC2)C(=O)O)c2cc(OC(C)(C)C(=O)O)ccc21` [Entry 11030] has an IC50 (IC50, Table 11) of under 1 µM.
`O=C(O)COc1ccccc1CN1CCC(NC(=O)c2ccc3c(c2)nc(-c2ccoc2)n3C2CCCCC2)C1` (stereo not drawn) [Entry 1261] showed an IC50 [1] of 10 to 25 µM.
Compound `O=C(N[C@@H](Cc1c[nH]c2ccccc12)C(=O)O)c1ccc2c(c1)nc(-c1ccoc1)n2C1CCCCC1` [Entry 11003] has an IC50 of under 1 µM.
`O=C(O)COc1ccccc1CN1CCCC(NC(=O)c2ccc3c(c2)nc(-c2ccoc2)n3C2CCCCC2)C1` (stereo not drawn) [Entry 1265] was tested, and the IC50 [1] was 1 to 5 µM.
`Cn1cccc1-c1nc2cc(C(=O)O)ccc2n1C1CCCCC1` [Entry 7024] was tested, and the IC50 (IC50 μM, Table 7) was 1 to 5 µM.
`Cc1cc(OCC(=O)O)cc(C)c1CC(NC(=O)c1ccc2c(c1)nc(-c1ccoc1)n2C1CCCCC1)C(=O)O` (stereo not drawn) [compound 20001] gave an IC50 (IC50, Table 20) of under 1 µM.
With `O=C(O)c1ccc2c(c1)nc(-c1ccoc1)n2C1CCCCC1` [Entry 7018, 1-Cyclohexyl-2-furan-3-yl-1H-benzoimidazole-5-carboxylic Acid] the IC50 (IC50 μM, Table 7) was 1 to 5 µM.
`NC(=O)[C@H](Cc1ccc(-c2nnn[nH]2)cc1)NC(=O)c1ccc2c(c1)nc(-c1ccoc1)n2C1CCCCC1` [Entry 16023] showed an IC50 (IC50, Table 16) of under 1 µM.
`O=C(N[C@@H](Cc1c[nH]c2ccc(O)cc12)C(=O)O)c1ccc2c(c1)nc(-c1ccoc1)n2C1CCCC1` [Entry 22002] gave an IC50 (IC50 μM, Table 22) of under 1 µM.
Work on `O=C(Nc1ccccc1)c1ccc2c(c1)nc(-c1ccoc1)n2C1CCCCC1` [Entry 1007] yielded an IC50 [1] of 1 to 5 µM.
`NC(=O)[C@H](Cc1ccc(O)c(/C=C/C(=O)O)c1)NC(=O)c1ccc2c(c1)nc(-c1ccoc1)n2C1CCCCC1` [Entry 16062, (E)-3-[5-((S)-2-Carbamoyl-2-{[1-(1-cyclohexyl-2-furan-3-yl-1H-benzimidazol-5-yl)-methanoyl]-amino}-ethyl)-2-hydroxy-phenyl]-acrylic Acid] was tested, and the IC50 (IC50, Table 16) was under 1 µM.
In the case of `CC(CC(=O)Nc1ccc(CCCC(=O)O)cc1)NC(=O)c1ccc2c(c1)nc(-c1ccoc1)n2C1CCCCC1` (stereo not drawn) [Entry 1164], the IC50 [1] is reported as 10 to 25 µM.
`CCOC(=O)c1cccc(NC(=O)N2CCC(NC(=O)c3ccc4c(c3)nc(-c3ccoc3)n4C3CCCCC3)C2)c1` (stereo not drawn) [Entry 1203] showed an IC50 [1] of 10 to 25 µM.
`O=C(N[C@H](CO)Cc1ccc(O)cc1)c1ccc2c(c1)nc(-c1ccoc1)n2C1CCCCC1` [Entry 1021] showed an IC50 [1] of 1 to 5 µM.
`O=C(NC(Cc1ccc(C2CC2C(=O)O)cc1)C(=O)O)c1ccc2c(c1)nc(-c1ccoc1)n2C1CCCCC1` (stereo not drawn) [Entry 16039] was tested, and the IC50 (IC50, Table 16) was under 1 µM.
Work on `Cc1cc2c(cc1C(=O)N[C@@H](Cc1c[nH]c3ccc(O)cc13)C(=O)O)nc(-c1ccoc1)n2C1CCCCC1` [Entry 5006, (S)-2-{[1-(1-Cyclohexyl-2-furan-3-yl-6-methyl-1H-benzimidazol-5-yl)-methanoyl]-amino}-3-(5-hydroxy-1H-indol-3-yl)-propionic Acid] yielded an IC50 (IC50 μM, Table 5) of 1 to 5 µM.
Compound `CC1CCCCC1n1c(-c2ccoc2)nc2cc(C(=O)NC(Cc3c[nH]c4ccc(O)cc34)C(=O)O)ccc21` (stereo not drawn) [Entry 22017] has an IC50 (IC50 μM, Table 22) of under 1 µM.
In the case of `O=C(N[C@@H](Cc1c[nH]c2ccc(O)cc12)C(=O)O)c1ccc2c(c1)nc(-c1ccno1)n2C1CCCCC1` [Entry 2128], the IC50 (IC50 μM, Table 2) is reported as 1 to 5 µM.
Work on `COc1ccc(-c2nc3cc(C(=O)NCCc4ccc(OC)c(OC)c4)ccc3n2C2CCCCC2)cc1` [Entry 2077] yielded an IC50 (IC50 μM, Table 2) of 5 to 10 µM.
`Cn1cc(C[C@H](NC(=O)c2ccc3c(c2)nc(-c2ccoc2)n3C2CCCCC2)C(N)=O)c2cc(OCC(=O)O)ccc21` [Entry 13003, [3((S)-2-Carbamoyl-2-{[1-(1-cyclohoxyl-2-furan-3-yl-1H-benzimidazol-5-yl)-methanoyl]-amino}-ethyl)-1-methyl-1H-indol-5-yloxy]-acetic Acid] gave an IC50 (IC50, Table 13) of under 1 µM.
With `CCC(NC(=O)c1ccc2c(c1)nc(-c1ccccn1)n2C1CCCCC1)c1ccc(OC)c(OC)c1` (stereo not drawn) [Entry 2050] the IC50 (IC50 μM, Table 2) was 5 to 10 µM.
`Nc1ccc2[nH]cc(C[C@H](NC(=O)c3ccc4c(c3)nc(-c3ccoc3)n4C3CCCCC3)C(=O)O)c2c1` [Entry 11023, (S)-3-(5-Amino-1H-indol-3-yl)-2-{[1-(1-cyclohexyl-2-furan-3-yl-1H-benzimidazol-5-yl)-methanoyl]-amino}-propionic Acid] showed an IC50 (IC50, Table 11) of under 1 µM.
`O=C(N[C@@H](Cc1c[nH]c2ccc(O)cc12)C(=O)O)c1ccc2c(c1)nc(-c1ccoc1)n2[C@@H]1CCCC[C@@H]1CO` [Entry 3037] was tested, and the IC50 (IC50 μM, Table 3) was 5 to 10 µM.
With `Cc1nc([C@H](Cc2ccc(O)cc2)NC(=O)c2ccc3c(c2)nc(-c2ccoc2)n3C2CCCCC2)cs1` [Entry 1187, 1-Cyclohexyl-furan-3-yl-1H-benzimidazole-5-carboxylic Acid [(S)-2-(4-Hydroxy-phenyl)-1-(2-methyl-thiazol-4-yl)-ethyl]-amide] the IC50 [1] was 1 to 5 µM.
With `O=C(N[C@@H](Cc1cccc(-c2nnn[nH]2)c1)C(=O)O)c1ccc2c(c1)nc(-c1ccoc1)n2C1CCCCC1` [Entry 16057, (S)-2-{[1-(1-Cyclohexyl-2-furan-3-yl-1H-benzimidazol-5-yl)-methanoyl]-amino}-3-[3-(2H-tetrazol-5-yl)-phenyl]-propionic Acid] the IC50 (IC50, Table 16) was under 1 µM.
`NC(=O)c1ccc(C[C@H](NC(=O)c2ccc3c(c2)nc(-c2ccoc2)n3C2CCCCC2)C(=O)O)cc1` [Entry 16035, (S)-3-(4-Carbamoyl-phenyl)-2-{[1-(1-cyclohexyl-2-furan-3-yl-1H-benzoimidazol-5-yl)-methanoyl]-amino}-propionic Acid] was tested, and the IC50 (IC50, Table 16) was under 1 µM.
